# Results: the supplement of paper PMC3334620
# Over roughly 33,000 sequences, “E-score (-0.5 to 0.5)” has its median near -0.016; the highest 2% begin near 0.32. The list shows a part of the results.
# Molecular target: T1, Stp1 (UniProt B3LFK1)
# T1 sequence: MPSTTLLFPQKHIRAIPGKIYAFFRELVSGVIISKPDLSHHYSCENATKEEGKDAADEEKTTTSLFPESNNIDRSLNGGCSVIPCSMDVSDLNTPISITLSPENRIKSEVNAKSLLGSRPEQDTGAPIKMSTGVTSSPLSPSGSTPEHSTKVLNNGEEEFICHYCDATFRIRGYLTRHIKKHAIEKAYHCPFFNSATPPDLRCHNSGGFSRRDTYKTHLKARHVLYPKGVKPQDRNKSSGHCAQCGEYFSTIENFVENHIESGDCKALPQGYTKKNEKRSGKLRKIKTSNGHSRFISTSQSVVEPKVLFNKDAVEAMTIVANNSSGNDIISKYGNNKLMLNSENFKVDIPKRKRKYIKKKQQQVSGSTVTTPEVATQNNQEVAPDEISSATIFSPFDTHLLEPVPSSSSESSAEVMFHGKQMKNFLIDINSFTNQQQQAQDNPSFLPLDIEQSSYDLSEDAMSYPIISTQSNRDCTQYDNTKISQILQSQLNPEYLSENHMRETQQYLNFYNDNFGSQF
# Experiment: PBM E-score (8-mer binding enrichment) (E-score (-0.5 to 0.5)); higher = stronger / more preferred TF binding; most listed sequences are background and not binding sites
# Conditions: protein concentration: 200 nM; construct: GST-full length
# Procedure: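 Universal 'all 10-mer' protein binding microarrays (Agilent AMADID 015681) probed with GST-tagged S. cerevisiae TFs (full-length or DBD) made by in vitro transcription/translation (PURExpress), about 100-200 nM. Bound TF was detected with fluorescent anti-GST. Each ungapped 8-mer (which stands for itself and its reverse complement) is scored by the PBM enrichment score (E-score), a modified Wilcoxon-Mann-Whitney statistic from -0.5 to +0.5, computed with the Universal PBM Analysis Suite. Scale: above 0.35 generally sequence-specific binding.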
row,Sequence,PBM E-score
1,AAAATGTA,0.144
2,GGTGGACA,-0.128
3,AAATTCGG,0.045
4,CTATATCA,0.191
5,ATAGAGTG,-0.0347
6,CTTGATTA,-0.12
7,GAAAGACC,-0.321
8,CGACTCTC,-0.16
9,ACGGTTCG,-0.00398
10,GCTAGAGA,-0.00314
11,GAGATGAA,-0.105
12,AAAATAGG,0.0621
13,CCGGCGCC,0.367
14,CTTTCATA,0.134
15,GTGACAAC,-0.0855
16,AAGCCTCC,-0.0554
17,CTGTGTAA,0.0786
18,TAGGGAAA,-0.00281
19,AATCATAT,0.145
20,CAGGATAC,0.0291
21,GTCTGGCA,-0.185
22,AACTTAGG,-0.132

row,Sequence,PBM E-score
1,TCAACTAA,0.147
2,GACGTTAA,0.0757
3,AGAGTAAC,-0.0837
4,ACGATAGG,-0.0773
5,CTTAGGAA,0.0134
6,GAGACGAC,-0.104
7,CAAATTAC,-0.0375
8,CCATACAA,0.0696
9,AAAAATCA,0.139
10,GTTCAGGA,0.0369
11,CCGAAAAA,0.223
12,AGGTGTCA,0.0452
13,TGTTCAAA,0.146
14,GGGTGCGA,-0.279
15,GCGTTAGC,0.0922
16,CACTTTCC,-0.224
17,ACCCGAAG,-0.183
18,ATCATAGG,-0.0255
19,AACAATCA,0.139
20,CAATCACA,-0.0178
21,ATGAATTC,0.188
22,AAACCCAA,0.0522

row,Sequence,PBM E-score
1,TGTGTAAA,0.228
2,ACCGTAGT,-0.0388
3,CCGTACAG,0.235
4,CGGGGAAC,-0.0321
5,AAAATCGC,0.117
6,GGCCTACA,-0.107
7,GATGGGGC,0.103
8,CGACCTAC,-0.244
9,ACCCGCGC,0.232
10,CCAAACTC,0.0339
11,AACGCTCG,0.119
12,ATGGCCAT,-0.0834
13,AATCGCCT,0.302
14,GTCGGGTA,-0.066
15,GGGTCTAA,-0.102
16,CTTAGATA,0.0095
17,ATACCGTA,0.133
18,GCCCACCC,0.00271
19,CTGGGGTA,-0.105
20,CTGTTCGC,0.176
21,GTTACTAA,0.127
22,ACCAAGTA,0.0595

row,Sequence,PBM E-score
1,GATGGAAA,-0.107
2,TCCTCTCA,-0.194
3,CTATTGTC,-0.0342
4,ACGGGAAT,-0.0268
5,GTTGTGAA,0.116
6,CTCTCCCA,-0.258
7,GTTGGAGA,-0.0668
8,CCGGATAA,0.00559
9,ATTTTTCG,0.177
10,GGGTTCAA,-0.0843
11,ATTTACTA,0.0619
12,GTATATGA,0.0505
13,ACGGCAGG,0.343
14,AAGGATGT,-0.0561
15,GGCGGGTA,-0.0661
16,AGTTCATC,-0.111
17,AAATATTG,0.191
18,CCGGCAAG,-0.0231
19,GTCTATGA,0.106
20,GGCGACAC,0.154
21,CGTCTCGA,0.0607
22,AAGGATCC,-0.118

row,Sequence,PBM E-score
1,AATGATTA,0.156
2,CACCGTTA,0.0959
3,AGGCTAAA,0.14
4,CCGCCCAC,0.0691
5,CACTCATG,-0.0672
6,ACGCACAG,-0.00964
7,CTTGCACC,0.0439
8,AGGCGCTA,0.358
9,GACATTCC,-0.133
10,CAAAACAA,-0.0461
11,CCTGGGAG,-0.226
12,GGGTGACC,-0.273
13,AAGGGCTA,-0.192
14,CGAGGATC,-0.0384
15,TATCCGAA,0.111
16,GAGAGCCA,0.0632
17,CCGGGTTC,-0.118
18,CCAGGCTC,-0.0925
19,GCCAGGTA,0.0834
20,AAGATCAC,0.214
21,CGAACAGA,0.0325
22,ACCAAACC,-0.0128
